# Laboratory results from paper PMC6212790.
# The list shows a part of the results. At the low end of the ranking the order means little.
# Biological target: T1, GST-Rok (full length) (UniProt O34857)
# T1 sequence: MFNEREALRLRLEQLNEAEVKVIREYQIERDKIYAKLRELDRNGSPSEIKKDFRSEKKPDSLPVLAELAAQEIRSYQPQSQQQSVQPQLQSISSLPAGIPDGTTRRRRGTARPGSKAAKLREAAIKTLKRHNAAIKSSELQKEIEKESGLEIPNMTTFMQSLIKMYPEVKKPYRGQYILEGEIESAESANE
# Experiment: protein binding microarray;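 further: rank score from −0.5 (least bound) to 0.5 (best bound)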
# Conditions: Rok is a gene silencer of Bacillus subtilis; high values mean tight binding; most listed sequences are background and not binding sites; double strand, one strand shown
row,Sequence,binding signal [E-score]
1,AGCACGAT,-0.0157
2,GCGCCCAC,-0.3
3,CACGCTCC,-0.215
4,CTAGGGAC,-0.221
5,ATGCCAAC,-0.0803
6,GACGAGTC,-0.104
7,ACTGGTCA,-0.0361
8,CCCACGTC,-0.3
9,CTCAGCAC,-0.145
10,GGTTCCTA,-0.019
11,CCCCATAC,-0.182
12,CAATAGGC,-0.0881
13,CCACCAAA,0.00945
14,AGGTAGAA,0.419
15,ACATACAC,0.234
16,CCAGATAC,0.043
17,AGTGCACC,-0.246
18,GGATTCAC,-0.0831
19,AGTAGACC,-0.0035
20,AGGGCCCG,-0.284
21,AATAATCC,0.00773
22,AACTCAGC,-0.0423
23,AGCCAACA,-0.107
24,AGAATTCC,0.221
25,CACGGATA,0.0453

row,Sequence,binding signal [E-score]
1,GCACCGAC,-0.244
2,AGAGTTAA,0.0496
3,AAAGTGCG,-0.151
4,ATGGCAAT,0.0495
5,AACTAACA,0.113
6,ATACAACC,0.252
7,AGAAGGCG,-0.203
8,AAAAATTC,-0.0372
9,GCACCGCC,-0.332
10,AAAAGATA,0.12
11,ATTGTCGG,-0.0667
12,GAAGCGAC,-0.161
13,CTTTCTTC,-0.0764
14,CCCGTTAG,-0.272
15,CCTCTTAG,-0.0452
16,TGCGACAA,-0.108
17,GGAGAAGA,-0.169
18,CTATAGAA,0.275
19,ACAGTCCA,-0.151
20,GAATGAAC,0.024
21,AAACTCCC,-0.149
22,CACCTCGA,-0.2
23,CAGTCAGA,-0.146
24,ACTCGTCC,-0.144
25,CGACCATC,0.0263

row,Sequence,binding signal [E-score]
1,GACTGCCA,-0.232
2,AGCCATAT,0.162
3,CTACTGCA,0.239
4,GTAGATTA,0.317
5,TACCGAAA,0.225
6,ATAATTGG,0.22
7,TAAGCAGA,-0.253
8,ACCCCACG,-0.309
9,TCTTCACA,0.175
10,AGGTCCGC,-0.204
11,AGTTCAGG,0.00951
12,ACACTCGC,0.0978
13,GGCTAGTA,0.0598
14,AGTATTAC,0.26
15,CCTAAAGG,-0.326
16,AGACCCAT,-0.031
17,AGTCGCAG,-0.219
18,GTTTGAGA,0.00995
19,CTTAAGGA,-0.228
20,TGGCGAAA,0.117
21,GAGATAGC,-0.0175
22,GGCCTAGA,-0.132
23,AAGCTTTG,0.0468
24,CGGTCACC,-0.248
25,AACAGCGG,-0.153

row,Sequence,binding signal [E-score]
1,CGGGCACA,-0.164
2,CAGACCGA,-0.19
3,GCTGGACC,-0.221
4,CCTTGGAC,-0.266
5,ATCGTCAG,-0.134
6,ACGACCAG,-0.163
7,GCTTTATA,0.0907
8,AGCCCATC,-0.189
9,GCCCCCGC,-0.351
10,CTCTCCTC,-0.332
11,ATGTATCC,0.262
12,CGGTGCTA,-0.072
13,GCCAGAGA,-0.126
14,CACGCACA,0.00624
15,ATAGGGCG,-0.0648
16,CGCGTATA,0.213
17,ACTGGTTC,0.0747
18,CACGAACG,-0.113
19,AGCCTTCC,-0.364
20,GGGCTCAC,-0.254
21,ACGCGCCA,-0.0487
22,ACTCCGCA,0.0638
23,GCGCGGAA,-0.142
24,ATGTCATA,0.164
25,AGCTCAGA,-0.0992

row,Sequence,binding signal [E-score]
1,AGCAACTG,-0.0274
2,AACTAAGC,0.0868
3,CCATCGTA,-0.0738
4,CACGGATG,-0.194
5,AAGTGGTA,0.348
6,AGCGTGCA,-0.0929
7,ATACCTAG,0.31
8,AGAGAGCG,-0.279
9,CTCAAGAA,-0.0423
10,CGTGGGTA,0.0305
11,ACAGTGCG,0.00979
12,ATGCCCAG,-0.37
13,GAGTGAGA,-0.153
14,CTCGCTAC,0.044
15,AAGGCACT,-0.0347
16,AATAGTCA,0.162
17,CTAGACAG,-0.0562
18,CGCTGAAC,-0.134
19,AACTTTGG,0.00806
20,ACTAGTCC,0.108
21,AGATGGTA,0.31
22,CCCACCAC,-0.324
23,CTCTGCTC,-0.000994
24,ATTCACGC,-0.0652
25,AGTTCAAT,0.0258

row,Sequence,binding signal [E-score]
1,ACGGGAGT,-0.187
2,ATTGACTG,0.17
3,TATATGCA,0.32
4,ACAGCGAT,-0.0187
5,CGTCTCTA,-0.15
6,AACGAATT,0.325
7,TAAGGAAA,0.00759
8,GTATGGAC,0.199
9,GCGGTCAC,-0.226
10,ACAACAGT,-0.00181
11,ACTATGAT,0.218
12,CCGTTTTA,0.0815
13,GCAAAACC,-0.161
14,CACAATTC,-0.0187
15,AGGCGAGC,-0.153
16,TAGGTCGA,0.173
17,GAACGCGC,0.0333
18,CTCTATCC,-0.158
19,CCGCCTCA,-0.275
20,CCCGATAC,0.00567
21,TAGGAATA,0.242
22,CGCATGCA,0.0144
23,ATGACCTC,-0.189
24,GCCTGGGA,-0.327
25,ACTGCGTC,-0.0103

row,Sequence,binding signal [E-score]
1,ACAGAAAG,0.157
2,ATAGGGAA,0.128
3,CGCACCGA,-0.0697
4,ACCACGAG,-0.083
5,CATTCAAC,0.058
6,AATAATTC,0.233
7,ACAATCTG,0.123
8,ATACAGCG,0.0286
9,ATCAATCG,-0.00632
10,CTCGCCTA,-0.0466
11,CAGGTCCA,-0.375
12,AAGAGTTG,-0.0832
13,AATTTGCG,0.151
14,GCTGTGCA,-0.129
15,ACAGGCAT,0.0025
16,AATCCCCA,-0.251
17,CCCTACGG,-0.405
18,GGCCCGCC,-0.437
19,CACCCTGC,-0.14
20,CGAGCTAC,0.115
21,TATACGCA,0.227
22,GAGGTTAA,-0.0161
23,ACGTACAG,0.165
24,CAAACGAA,0.108
25,CACTGGTA,-0.02

row,Sequence,binding signal [E-score]
1,CCACACCC,-0.17
2,GACCTGGC,-0.314
3,ACACCTAG,0.0912
4,ACTTAATG,0.192
5,CGGCTGAA,-0.0243
6,CAAACCTG,0.00968
7,ATGTGGTA,0.204
8,AAGTTATC,0.24
9,ACTACAAC,0.293
10,CGCATGAA,-0.174
11,GATGACGC,-0.218
12,CGCGTTGC,-0.26
13,ATCTGTTA,0.192
14,AACTGAAA,0.0317
15,CGTGCGGC,-0.249
16,CAACCACC,-0.163
17,CTCAATAA,0.0681
18,GTTGAAAA,0.108
19,CCTCCTGC,-0.361
20,ACTTAGGG,-0.0547
21,GAGTATTA,0.208
22,CCGATTCG,-0.0898
23,AACCATTC,-0.146
24,ATGTAAGC,0.145
25,ATCCGCAA,-0.0455

row,Sequence,binding signal [E-score]
1,CTAGTAAG,0.151
2,AGGAGGGC,-0.445
3,AACGGGTG,-0.105
4,GGGACATA,-0.242
5,AATCGTCT,-0.036
6,CTTGAGCC,-0.343
7,AGCGGAGA,0.0026
8,CGAGCCTA,-0.0473
9,CCAAACAC,-0.0316
10,AAGGGCCG,-0.216
11,CTAGCGAA,0.165
12,CATATTAC,0.289
13,TGGCCACA,0.0692
14,AAGGGGAA,-0.239
15,GTGTCCAA,-0.212
16,GTGCATTA,0.168
17,GGCTCCTA,-0.222
18,GCACCCCA,-0.291
19,ACGCTTCT,-0.113
